Measured values published in paper PMC12136788.
This is one part of the list.

B1: chr3:107805913:107806014:+|3pUTR|ENSG00000114439|msi1_unk|total|mutant (ssRNA)
RNA: GGGAGUUCUACAGUCCGACGAUCUACAUGGAGAUUUAAGUUUAAGAUGGUUUAUAUAACCGGUUAUACCUACAUUUAUAUUGCCGAAUAAAUAUUAAAAAGCCUGUUCCAGAGACUCCCAAGCAGCCUGGGCAGGCAGAUGUACAACAGAGGAUUGAGCAUCA
B2: chr5:55424853:55425205:-|three_prime_utr|ENSG00000067113|control|control|control (ssRNA)
RNA: GGGAGUUCUACAGUCCGACGAUCCAAGCCUUUAAAGACUUCUGCUGCUGCUAUGCCUCUUGGAUGCACACUUUGUGUGUACAUAGUUACCUUUAACUCAGUGGUUAUCUAAUAGCUCUAAACUCAUUAAAAAAACUCCAAGCCCAACAGAGGAUUGAGCAUCA
B3: chr15:49134392:49134529:-|CDS|ENSG00000166200|unk|total|mutant (ssRNA)
RNA: GGGAGUUCUACAGUCCGACGAUCAUAUUUGCUUUCCCCGACUGAUGAUGGAGAAGAUGAUCUGAAAAAAGGUACACAGUUAUCCGAAAUAUAUGCUUUGGAAAUUCAAAUGUACACAGCACAGAAAAAUAACAAAAAACUUAACAACAGAGGAUUGAGCAUCA
B4: chr11:130877263:130877364:-|3pUTR|ENSG00000120451|msi1|total|mutant (ssRNA)
RNA: GGGAGUUCUACAGUCCGACGAUCCAGUCCUUUAACAACACCAGCAUGAAGGCAAAGGUGUUUUGUCAGACUGCAACAUCUAUCCGAAAGGCAAGGCAACUGGGAAUUGCUGGAGAAGGAUAAAUCAGGAGGAAUUGCUGGCCGCAACAGAGGAUUGAGCAUCA
B5: chr1:150960872:150960973:+|CDS|ENSG00000143379|unk|total|mutant (ssRNA)
RNA: GGGAGUUCUACAGUCCGACGAUCGGACUCCCACCCCCCAGAUCUUGGACCCCCACAUAUUCCUGUUCCUCCCUCAAUCCCUGCCGGUGGCUGCAAUCCACCUUCCUCCGAAGAGACACCCAAGAACAAGGUGGCCUCAUGGUUCAACAGAGGAUUGAGCAUCA
B6: chrX:48578139:48578249:+|3pUTR|ENSG00000102317|msi1_unk|total|mutant (ssRNA)
RNA: GGGAGUUCUACAGUCCGACGAUCGUAUCAAGAACAUGAUUAUCCAGCGGUAUUUUCUAAUUCAGAUCAUCAAACUGAUUAUACCGAAGAGUUGGCUUUAAAAUGUUUGCAAAUGUCUUUUUUUUUUUAAUACUGGAAGAAAAACAACAGAGGAUUGAGCAUCA
B7: chr15:34751031:34752477:-|three_prime_utr|ENSG00000159248|control|control|control (ssRNA)
RNA: GGGAGUUCUACAGUCCGACGAUCAUGACUGCUCAGACGUGGCUGUAUCCACCCUCAUUUAUGUGACCCUCACCAUUAAGAUGUAGGAUAAGACUGGAUAAAAGAAGAUUUUGCACCAAUGGGAAAGGAGGAAAAGUGGACCCACAACAGAGGAUUGAGCAUCA
B8: chr8:140515610:140515764:+|3pUTR|ENSG00000104472|unk|total|mutant (ssRNA)
RNA: GGGAGUUCUACAGUCCGACGAUCUUUUGGAAUCAGUUCUUAUAAACAGCUCGAUUCAGUUUCCGCUAAAUUUACCGUUCCGGCCGUAUGUUACAUUUGAAUUUUUGUCUUAAGAAAAGUUGACUGUUCAGAUAUUUUUCUACUCAACAGAGGAUUGAGCAUCA
B9: chr2:32415436:32415554:+|CDS|ENSG00000115760|unk|FALSE|unique (ssRNA)
RNA: GGGAGUUCUACAGUCCGACGAUCUGGGACUUUGGUUCAGUGCUUGAGGCUGCCAAAGUUUGCAGAGGAGGAGAAUCUUUGUAUAGACUCAAUAACUCCUUGUGCUGACGGAAUUCAUUUGUUGGUAGGACUGCGGACAUGCCCCAACAGAGGAUUGAGCAUCA
B10: chr2:197486603:197486717:-|3pUTR|ENSG00000144381|unk|total|mutant (ssRNA)
RNA: GGGAGUUCUACAGUCCGACGAUCCCACCAGAUGAGAAGUUAAGCAGCCUUUCUGUGGAGAGUGAGAAUAAUUGUGUACAAAGCCGAGAAGUAUCCAAUUAUGUGACAACCUUUGUGUAAUAAAAAUUUGUUUAAAGUUAAUAACAACAGAGGAUUGAGCAUCA
B11: chr17:57106211:57106324:+|CDS|ENSG00000121057|unk|total|mutant (ssRNA)
RNA: GGGAGUUCUACAGUCCGACGAUCUCAUCCCAGGUGGUGGGGCCAGUGCAGGAGGAAGAGUAUGCCGCAGAGAAGUUGCCAAGCCGGUUCAUCGAGUCGGCUCACACAGAGCUGGCAAAGGACGAUGCGGCGCCAGCACCCCCACAACAGAGGAUUGAGCAUCA
B12: chr6:31137533:31137950:-|three_prime_utr|ENSG00000204538|control|control|control (ssRNA)
RNA: GGGAGUUCUACAGUCCGACGAUCGCAUCUCCAGGCACCCACGCCCUCUCCACCCUCUGAUUCCCCGUGAAUUCUUCCCAAUUUAGCCUGUCUCCUUAAACCUCUUCCUCAUUCCCUCGGUUUUAUUCUGAACCCGUAAGGUGGCAACAGAGGAUUGAGCAUCA
B13: chr9:134030564:134030586:-|3pUTR|ENSG00000169925|msi1_unk|FALSE|overlapping (ssRNA)
RNA: GGGAGUUCUACAGUCCGACGAUCCCUCUGACAGUCUUUUGGGAAAGAGUAACACCCACAUACAGAAUUUGUCACAUCCAGAGUAGCACUGUUCCUUAAUACUGGCAUAAUGCUUCCAGGAAGUUUUUCUUUUUUAUAUUUAAACAACAGAGGAUUGAGCAUCA
B14: chr14:100537146:100537968:-|three_prime_utr|ENSG00000183092|control|control|control (ssRNA)
RNA: GGGAGUUCUACAGUCCGACGAUCGCCCCGGCCAACAACGAGGAGUCUGUUCCUCCCCGCACCUCCUCUCCUCCCCAGCCCUGUAGGCCUGAGGGGAGGGUCCCCCACACCACGGUGUCCACCCGGCCCCGGCCCGUGGAACUCCAACAGAGGAUUGAGCAUCA
B15: chr6:52752853:52752995:-|CDS|ENSG00000244067|control|control|control (ssRNA)
RNA: GGGAGUUCUACAGUCCGACGAUCAUUGAUAUGUAUAUAGAAGGUAUAGCAGAUUUGGGUGAAAUGAUCCUUCUUCUGCCCUUUAGUCAACCUGAGGAACAAGAUGCCAAGCUUGCCUUGAUCCAAGAGAAAACAAAAAAUCGCCAACAGAGGAUUGAGCAUCA
B16: chr16:70532473:70532607:+|CDS|ENSG00000189091|unk|total|mutant (ssRNA)
RNA: GGGAGUUCUACAGUCCGACGAUCCAAUGAUCCAACAGGGGAAGCAGCAGCUAAUACCCAGCAGACACUUACUUUCUAUGAGCCCGACCUUGGUUUAAAUCAUGUGGUCCGAAAAUACAGUGAACCUUUGGAGGAACACGGCAACAACAGAGGAUUGAGCAUCA
B17: chr4:41013971:41014072:-|CDS|ENSG00000163697|msi1|FALSE|unique (ssRNA)
RNA: GGGAGUUCUACAGUCCGACGAUCGCAGGACCCCAACAAAAACCUGAGCCCCACUGCAGUCAUCAACAUAACUUCUGAGAAGUUAGAGGGUAAAGAGCCCCACCCACAGGAUUCCUCGAGCUGUGAGAUUUUACCCUCCCAGCCCAACAGAGGAUUGAGCAUCA
B18: chr2:40113585:40113686:-|3pUTR|ENSG00000183023|msi1|FALSE|unique (ssRNA)
RNA: GGGAGUUCUACAGUCCGACGAUCUCAUUUUAUUUUUUUACUUAAAAGGCUAUUUUGAGCCCUGUUUCUUUCACUGUCCAGUCUAGUCCUCUUUGAUUAUAUCAGUAGUUGCUGAGUAAGAAAGAAGCCAGGGUGACCAACGGGCAACAGAGGAUUGAGCAUCA
B19: chr9:34253332:34253433:-|3pUTR|ENSG00000186638|unk|FALSE|unique (ssRNA)
RNA: GGGAGUUCUACAGUCCGACGAUCCUCUGAAACAGAAUUCACACACAAACCUUCAGCCAAGUUCUGCCUGCUGUGUAUCUUUUUAGCAGGAAGCAGCUCAGGACAGGGAAGACAAAGUAGCCUCCAGGUGCCAAUUACUUUAAACAACAGAGGAUUGAGCAUCA
B20: chr20:37241422:37241523:+|3pUTR|ENSG00000118705|msi1_unk|FALSE|overlapping (ssRNA)
RNA: GGGAGUUCUACAGUCCGACGAUCGUAUGAGAAGAAAAAUGGAAAAAAAAAACUUUAUUUAAAAAAGAAAAAAGUCCAGAUUGUAGUUAUACUUUUGCUUGUUUUUCAGUUUCCCCAACACACAGCAGAUACCUGGUGAGCUCACAACAGAGGAUUGAGCAUCA
B21: chr10:72012227:72012328:+|3pUTR|ENSG00000122863|msi1|FALSE|unique (ssRNA)
RNA: GGGAGUUCUACAGUCCGACGAUCCAAUGGAAGGAGCUUCAGCAGGAGGUCCUUCCCAGAAGGUUGAUUCUUGGCCUGGGUGGUAGAGGAGAUAUCCUGACCCUAAAGUCUUCCAGCCCCGGGUCAUCCUCUCCUAUACUAGGGCAACAGAGGAUUGAGCAUCA
B22: ENSG00000173273:stop:overlap|stop_codon|ENSG00000173273|stop_codon|NA|stop_codon (ssRNA)
RNA: GGGAGUUCUACAGUCCGACGAUCACCAGAUCAUGAAGCCAGAAGCCCCUUCCCAGACCGCAACAGCCGCAGAGCAGAAGACCUAGUGAAUGCCUGCUGGUGAAGGCCAGAUCAGAUUUCAACCUGGGACUGGAUUACAGAGGACAACAGAGGAUUGAGCAUCA

What follows are binders tested against T1, UNK ZnF1-6 (called full-length) (human, UniProt Q9C0B0 30-357) (assay: nsRBNS (natural sequence RNA bind-n-seq); RBNS binding buffer (assumed for nsRBNS): 25 mM Tris pH 7.5, 150 mM KCl, 3 mM MgCl2, 0.01% Triton X-100, 500 ug/ml BSA, 20 U/ml SUPERase-In, 4 C; UNK is unkempt and MSI1 is Musashi-1; names of the RNAs are library labels; protein concentration not given here; high values mean tight binding).
T1 sequence: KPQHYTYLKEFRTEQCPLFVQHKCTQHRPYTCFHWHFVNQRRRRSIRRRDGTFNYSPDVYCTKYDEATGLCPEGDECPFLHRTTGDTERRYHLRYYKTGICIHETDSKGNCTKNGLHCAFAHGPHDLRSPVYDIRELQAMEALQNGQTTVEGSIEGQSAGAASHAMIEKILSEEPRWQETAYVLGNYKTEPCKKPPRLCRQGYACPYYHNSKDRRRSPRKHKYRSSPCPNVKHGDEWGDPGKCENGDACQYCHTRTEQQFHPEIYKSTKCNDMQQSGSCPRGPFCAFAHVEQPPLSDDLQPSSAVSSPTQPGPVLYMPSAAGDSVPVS

Binder | binding signal [enrichment R]
B1 | 0.499
B2 | 0.725
B3 | 0.45
B4 | 0.663
B5 | 0.752
B6 | 0.446
B7 | 0.717
B8 | 0.344
B9 | 0.624
B10 | 0.897
B11 | 0.814
B12 | 1.63
B13 | 0.595
B14 | 0.879
B15 | 0.361
B16 | 0.484
B17 | 0.874
B18 | 0.924
B19 | 0.715
B20 | 0.6
B21 | 0.684
B22 | 1.24
